Measured values from the antibiotic and cytotoxicity screens of Wong et al. (2023).
This is one part of the list.

What was measured:
HSkMC = human skeletal muscle cells; assay: cytotoxicity call (relative viability < 0.9); conditions: 10 µM
HepG2 = assay: cytotoxicity call (relative viability < 0.9); conditions: 10 µM
S. aureus RN4220 = assay: growth inhibition call (relative growth <= 0.2); conditions: 50 µM

Row | Compound | cytotoxicity call (HSkMC) | cytotoxicity call (HepG2) | growth inhibition call (S. aureus RN4220)
1 | CC(C)N1CC=C[C@@]23O[C@@H]4/C=C\CCCOC(=O)[C@@H]4[C@H]2C(=O)N(CCCO)[C@@H]3C1=O | inactive | inactive | inactive
2 | CC(C)(C)OC(=O)Cn1ccc(=O)[nH]c1=O | inactive | inactive | inactive
3 | C[C@@H]1CN([C@H](C)CO)S(=O)(=O)c2ccc(-c3ccc(C(=O)N(C)C)cc3)cc2O[C@@H]1CN(C)C(=O)C1CCC1 | inactive | inactive | inactive
4 | C[C@@H]1CCCCO[C@H](CN(C)C(=O)Nc2ccc(F)cc2)[C@@H](C)CN([C@@H](C)CO)C(=O)c2cc(NS(=O)(=O)c3cccs3)ccc2O1 | inactive | inactive | inactive
5 | CC(C)CC#Cc1cnc2c(c1)C(=O)N([C@H](C)CO)C[C@H](C)[C@@H](CN(C)S(=O)(=O)c1cn(C)cn1)O2 | inactive | inactive | inactive
6 | C[C@@H]1CN([C@@H](C)CO)C(=O)c2cc(NC(=O)Cc3ccccc3)ccc2O[C@@H]1CN(C)Cc1ccc(C(=O)Nc2ccccc2N)cc1 | inactive | inactive | inactive
7 | COc1c2occc2cc2ccc(=O)oc12 | inactive | active | inactive
8 | C[C@@H]1CN([C@@H](C)CO)C(=O)c2cc(/C=C/c3ccccc3)cnc2O[C@@H]1CN(C)C(=O)Nc1ccc(C(F)(F)F)cc1 | inactive | inactive | inactive
9 | COc1ccccc1C#Cc1ccc2c(c1)O[C@H](CN(C)Cc1ccncc1)[C@@H](C)CN([C@H](C)CO)S2(=O)=O | inactive | inactive | inactive
10 | CCN1[C@H](C(=O)NCCc2cn(C)cn2)[C@@H](CO)[C@@H]2Cn3c(ccc(-c4cccnc4)c3=O)[C@@H]21 | inactive | inactive | inactive
